# Results from PubChem BioAssay AID1347120 (National Center for Advancing Translational Sciences (NCATS), 2019).
# Out of some 390,000 compounds screened, about 930 (0.24%) were called active. Inconclusive results, whose numbers are uncertain, are shown with a selection of clear calls. Calls come from the whole dose curve; as a rule, active = well fitted activation curve with a large enough effect; inconclusive = small, poorly fitted or top-dose-only effect; inactive = no such curve, though single readings can be large or run the other way. Potencies of inconclusive entries are doubtful fits and often do not repeat.
# Assay: qHTS for Suppressors of FUS Proteinopathy: Primary screen using FUS-linked yeast assay; note: nearly all actives have a fitted effect of over 55% in size;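 for growth rescue (activation): plate controls were DMSO vehicle for no effect and reference control for full effect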
# Details: S. cerevisiae FUS-expressing, OD600, 24 h; Potency: growth rescue; growth rescue (activation): at 76.6 µM (top of the series)
# How it was run: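 Restored growth of FUS-toxic S. cerevisiae, read as 600 nm absorbance after 24 h at 30C in galactose medium (starting OD 0.005). Controls CP55940 and DMSO.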
# Potency is the fitted concentration of half-maximal effect; tags give direction and shape of the fitted curve.
Compound,Potency,growth rescue (activation)
CC(C)(C)OC(=O)c1c(N)n(Cc2ccco2)c2nc3ccccc3nc12,"inconclusive: 35.5 µM [activator, partial curve, poor fit]",
COC(=O)C1=C(c2ccc(F)cc2F)C[C@@H]2CC[C@H]1N2C(=O)NCCOc1ccccc1,"inconclusive: 31.6 µM [activator, single point]",
CCC(C)n1c(O)c(C(c2ccccn2)c2c(O)n(C(C)CC)c(=S)[nH]c2=O)c(=O)[nH]c1=S (stereo unspecified),"inconclusive: 28.2 µM [activator, single point]",
COc1cc(Cn2c(N)c(C(=O)NCc3ccco3)c3nc4ccccc4nc32)cc(OC)c1OC,"inconclusive: 31.6 µM [activator, partial curve, poor fit]",
COC(=O)C1=C(c2ccc(-c3ccccc3)c(F)c2)C[C@@H]2CC[C@H]1N2C(=O)NCCOc1ccccc1,"inconclusive: 25.1 µM [activator, partial curve]",
Fc1cccc(-c2ccc3c(c2)CN(C(=S)NCCc2ccccc2)Cc2cnnn2-3)c1,"inconclusive: 31.6 µM [activator, single point]",
COC(=O)C1=C(c2ccc(-c3ccccc3)c(F)c2)C[C@@H]2CC[C@H]1N2C(=O)NCCOc1ccccc1Cl,"inconclusive: 28.2 µM [activator, single point]",
COc1ccc(C2=CC(c3ccc(OC)c(OC)c3)c3c(c4ccccc4oc3=O)O2)cc1OC (stereo unspecified),inactive,
COc1ccc(NC(=O)CN(C)C(=O)CSC(c2ccccc2)c2ccccc2)cc1,"inconclusive: 0.891 µM [activator, full curve, poor fit]",
COc1ccc(-c2nc(CN3C(=O)CN=C(c4ccccc4)c4ccccc43)c(C)o2)cc1,"inconclusive: 39.8 µM [activator, single point]",
CCCCN1C(=O)NC(=O)C2(Cc3ccccc3N3CCOCC32)C1=O (stereo unspecified),,inconclusive: 126% [activator]
Cc1ccc(N2C(=O)NC(=O)/C(=C\C=C\c3ccco3)C2=O)cc1C,inactive,
COc1ccc(OC(=O)N(C)C[C@@H]2OCc3ccccc3-c3c(n(C)c4ccccc34)C(=O)N([C@H](C)CO)C[C@@H]2C)cc1,"inconclusive: 28.2 µM [activator, single point]",
Cc1cc(NC(=O)COC(=O)c2c(C)nn(Cc3ccccc3Cl)c2C)no1,"inconclusive: 50.1 µM [activator, single point]",
C[C@]12C=CC(=O)C=C1CC[C@@H]1[C@@H]2CC[C@]2(C)C(=O)CC[C@@H]12,inactive,
CNc1ccc2oc(C[C@H]3O[C@@]4(CC[C@H]3C)O[C@H]([C@H](C)C(=O)c3ccc[nH]3)[C@H](C)C[C@H]4C)nc2c1C(=O)O,inactive,
COCc1cc(OC(=O)N(C)C)nc(-c2ccccc2)n1,"inconclusive: 2.51 µM [activator, full curve, poor fit]",
O=C(NC1CCCCC1)N1Cc2cc(N3CCOCC3)ccc2-n2nncc2C1,"inconclusive: 31.6 µM [activator, single point]",
COC(=O)C1=C(c2ccc(F)cc2OCc2ccccc2)C[C@@H]2CC[C@H]1N2C(=O)NCCCOC(C)C,"inconclusive: 25.1 µM [activator, single point]",
Cc1c(N=Cc2c(O)n(Cc3ccco3)c(=O)[nH]c2=O)c(=O)n(-c2ccccc2)n1C,inactive,
COc1ccccc1N1CCN(Cc2ccc(Br)s2)CC1,"inconclusive: 28.2 µM [activator, single point]",

Compound,Potency,growth rescue (activation)
COC(=O)C1=C(c2ccc(OCc3ccccc3)cc2)C[C@@H]2CC[C@H]1N2C(=O)NCCCCc1ccccc1,"inconclusive: 14.1 µM [activator, partial curve]",
O=C1NCN(c2ccccc2)C12CCN(C(c1ccnc3ccccc13)c1nnnn1Cc1ccccc1)CC2 (stereo unspecified),inactive,
O=C1CCN(C(=O)CCCn2c(=O)oc3ccccc32)CC1,inactive,
CC[n+]1c(/C=C/C=C/c2ccc(N(C)C)cc2)sc2ccccc21,"inconclusive: 28.2 µM [activator, single point]",
COc1ccc2c(c1)CC1(CN2C)C(=O)NC(=O)N(c2ccc(F)cc2)C1=O (stereo unspecified),"inconclusive: 31.6 µM [activator, single point]",
Cc1cc(O)c2c3c(c(=O)oc2c1)CCC(C)C3 (stereo unspecified),inactive,
O=c1[nH]c2ccccc2n1C1CCN(C(c2cccc3ccccc23)c2nnnn2-c2ccc3c(c2)OCCO3)CC1 (stereo unspecified),"inconclusive: 22.4 µM [activator, partial curve, poor fit]",
Cc1cccc2nc(-c3ccccc3)c(-c3ccc(CN4CCC(n5c(=O)[nH]c6ccccc65)CC4)cc3)nc12,"inconclusive: 20 µM [activator, single point]",
O=c1[nH]c2ccccc2n1C1CCN(C(c2cccc3ccccc23)c2nnnn2Cc2ccccc2)CC1 (stereo unspecified),"inconclusive: 14.1 µM [activator, partial curve, poor fit]",
CC(=O)NC(Cc1ccc(N(CCCl)CCCl)cc1)C(=O)NC(C(=O)O)C(C)C (stereo unspecified),inactive,
COc1ccc2[nH]c3c(c2c1)CCN[C@H]3C,"inconclusive: 31.6 µM [activator, partial curve, poor fit]",
Cc1ccc2cc3cc(C(=O)N4CCC5(CC4)OCCO5)oc3nc2c1,inactive,
O=C(Nc1nccs1)C(Cl)(Cl)Cl,inactive,
COC(=O)C1=C(c2ccc(F)cc2F)C[C@@H]2CC[C@H]1N2C(=O)NCCOc1ccccc1Cl,"inconclusive: 31.6 µM [activator, single point]",
Nc1c(C(=O)NC2CCCC2)c2nc3ccccc3nc2n1CC1CCCO1 (stereo unspecified),"inconclusive: 28.2 µM [activator, single point]",
O=c1c2ccccc2nc(CSc2ncnc3nc[nH]c23)n1-c1ccccc1,,inconclusive: 96.9% [activator]
O=c1[nH]c2ccccc2n1C1CCN(Cc2ccc(-c3nc4ccc(F)cc4nc3-c3ccccc3)cc2)CC1,"inconclusive: 22.4 µM [activator, single point]",
COc1ccc(-c2ccc3c(c2)CN(C(=O)CCc2ccccc2)Cc2cnnn2-3)cc1,"inconclusive: 28.2 µM [activator, partial curve, poor fit]",
O=S(=O)(NC1CCCCCCC1)OCC(Cl)(Cl)Cl,inactive,
Cc1c(C(c2ccc(Br)cc2)c2c(O)c3ccccc3oc2=O)c(=O)n(-c2ccccc2)n1C (stereo unspecified),"inconclusive: 20 µM [activator, partial curve]",
COC(=O)C1=C(c2ccc3ccccc3c2)C[C@@H]2CC[C@H]1N2C(=O)N1CCCCC1,"inconclusive: 25.1 µM [activator, single point]",

Compound,Potency,growth rescue (activation)
Cc1ccccc1-[n+]1c(-c2ccccc2)cc(-c2ccccc2)cc1-c1ccccc1,inactive,
O=C1NCN(c2ccccc2)C12CCN(C(CCc1ccccc1)c1nnnn1C1CCCC1)CC2 (stereo unspecified),"inconclusive: 20 µM [activator, single point]",
O=C(c1cc(=O)[nH]c2ccc(Br)cc12)N1CCC2(CC1)OCCO2,,inconclusive: 67.1% [activator]
O=C(CN1C(=O)[C@@H](Cc2c[nH]c3ccccc23)N=C(c2ccccc2)c2ccccc21)NC1CCCCC1,"inconclusive: 17.8 µM [activator, partial curve, poor fit]",
COc1ccc(-n2nnnc2C(CCc2ccccc2)N2CCC3(CC2)C(=O)NCN3c2ccccc2)cc1 (stereo unspecified),"inconclusive: 14.1 µM [activator, partial curve]",
O=C1NC(=O)N(Cc2ccc(F)cc2)C(=O)/C1=C\c1ccc([N+](=O)[O-])s1,"inconclusive: 25.1 µM [activator, partial curve]",
O=[N+]([O-])c1ccc(N(CCO)CCO)c2c1no[n+]2[O-],inactive,
Cn1cc(/C=C2\C(=O)NC(=O)N(c3ccccc3)C2=O)c2ccccc21,"inconclusive: 50.1 µM [activator, partial curve, poor fit]",
Oc1ccc(/C=N/NP(=S)(c2ccccc2)c2ccccc2)cc1O,"inconclusive: 39.8 µM [activator, partial curve, poor fit]",
Clc1cccc(N2CCNCC2)c1Cl,"inconclusive: 11.2 µM [activator, single point]",
O=c1[nH]c(=O)n(CCC2=CCCCC2)c(O)c1/C=N/Nc1cccc2ccccc12,"inconclusive: 2 µM [activator, full curve, poor fit]",
O=C(Nc1ccncc1)c1cccn(Cc2ccccc2)c1=O,inactive,
CCCCCCC(=O)N/N=C/c1c(O)n(CCCC)c(=S)[nH]c1=O,"inconclusive: 50.1 µM [activator, single point]",
COC(=O)C1=C(c2ccc(F)cc2OCc2ccccc2)C[C@@H]2CC[C@H]1N2C(=O)NC1Cc2ccccc2C1,"inconclusive: 14.1 µM [activator, partial curve]",
COc1cc(C=C2C(=O)NC(=O)NC2=O)ccc1OCc1ccc([N+](=O)[O-])cc1,inactive,
O=c1c2ccccc2nc(CSc2ncnc3nc[nH]c23)n1-c1ccccc1Cl,"inconclusive: 25.1 µM [activator, single point]",
O=C1NCN(c2ccccc2)C12CCN(C(c1cccs1)c1nnnn1C1CCCCC1)CC2 (stereo unspecified),"inconclusive: 25.1 µM [activator, single point]",
CCOC(=O)c1c(-c2ccccc2)oc2ccc(OC(=O)N(C)C)cc12,"inconclusive: 50.1 µM [activator, single point]",
Cc1ccccc1N1C(=O)NC(=O)/C(=C\c2ccc3c(c2)CCCN3Cc2ccccc2)C1=O,"inconclusive: 35.5 µM [activator, single point]",
